± gives the standard deviation. In all, about 6,600 sequences were measured (“pre-steady-state target cleavage rate”: median about 0.07, highest 2% from about 0.72 on). This is a selection; strong and weak results do not stand in their true shares.

The test relates to MIWI (PIWIL1) piRISC loaded with Kctd7 piRNA (30 nt). Briefly: pre-steady-state target cleavage rate (min^-1); MIWI and MILI are mouse PIWI proteins and EfPiwi is from a freshwater sponge; tags in brackets are library labels; higher = faster piRNA-guided slicing of the target. The settings on record: guide: Kctd7 piRNA 5'p-UGUUAAUCUCUCAGAGAAGGUGACAGUGAU; auxiliary factor: 500 nM mouse GTSF1. The method, boiled down:
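The pre-steady-state cleavage rate was obtained by Cleave-'n-Seq with a burst-and-steady-state fit. A transcribed, DNA-blocked target RNA library (0.1 nM) was mixed with 1 nM active affinity-purified piRISC carrying one synthetic guide, with or without 500 nM GTSF1 partner protein, in HEPES–potassium acetate buffer at 33 °C for 0–8 or 0–960 min. Uncleaved targets were sequenced and normalised to depth and to weakly complementary targets, with three trials pooled and k3 capped at 0.0001 min^-1.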
Regarding AUCACUGUCACGUUCUCUGUGAGAUUAACA, the “pre-steady-state target cleavage rate” value is 0.22 ± 0.013.
Consider UAGUGACUCACACUUCUCUGAGAGAUUAACA, for which the “pre-steady-state target cleavage rate” value was 0.0999 ± 0.011.
Under UAGAGACUCACCUUCUCUGAGAGAUUAACA stands 0.597 ± 0.027; under UACACUCUCACCUUGUCUGAGAGAUUAACA, 0.174 ± 0.025.
As for AUGACUGACACCUUCUCUGAGAGAUUAACA, the “pre-steady-state target cleavage rate” value turned out to be 0.646 ± 0.029.
Under UACACUGUCACCUACUCUGUGAGAUUAACA stands 0.202 ± 0.017.
The same measure for AAGUCUGUCACCUUCUCUGAGAGAUAUUGA: 0.0194 ± 0.0071.
The same measure for UACACUGUCACCUUGUCUGACAGAUUAACA: 0.221 ± 0.037; for AUCACUGUCACCUUCUCUCUGAGAUUAUGA: 0.00839 ± 0.0048.
With AUCACUGUCACCAUCACUGAGAGAUUAACA, the “pre-steady-state target cleavage rate” value came out at 0.481 ± 0.024.
The same measure for UAGACUCUCACCUUCUCUGAGAGAUAUUGA: 0.0531 ± 0.011.
The same measure for UAGUGACAGUGGAAGUCUGAGGGAUUAACA: under 0.0001.
The same measure for UUCACUGUCACCUUCACUGAGAGAAUAACA: 0.219 ± 0.048; for UACACUGUCAGCUUCUCUGAGAGAUUUACA: 0.21 ± 0.022; for UUCAGUGUCACCUUCUCUGAGAGAAUAACA: 0.26 ± 0.044.
Take UACACUGUCACCUUCACAGAGAGAUUAACA: the “pre-steady-state target cleavage rate” value came to 0.0735 ± 0.013.
Under UAGUGACUCACGUUCUCUGUGAGAUUAACA stands 0.0459 ± 0.0042.
The same measure for UAGUGACACACCUUCUGUGAGACAUUAACA: 0.127 ± 0.018; for UAGUGUGUCACGUUCUCAGAGAGAUUAACA: 0.206 ± 0.019; for UAGUCUGUCCACCUUCUCUGAGAGAUUAACA: 0.474 ± 0.043.
The same measure for UUCACUGUCUCCUUGUCUGAGAGAUUAACA: 0.263 ± 0.039; for AUCACUGUCACGUUCUCUGAGACAUUAACA: 0.00974 ± 0.0034.
In the case of UAGUGUGUCAGGAUCUCUGAGAGAUUAACA, the “pre-steady-state target cleavage rate” value came out at 0.0321 ± 0.0065.
The same measure for UAGUGAGUCACCUUCUCUGAGAGGAUUAACA: 0.266 ± 0.027; for AUCACUGUCACCUUCUCAGAGAGAUUAUGA: 0.0679 ± 0.018.
The same measure for UACACUGUCACCUUCACUGAGAGAUUUACA: 0.365 ± 0.064.
As to UAGUGACAGUGGAAGAGUGACAGAUUAACA, the “pre-steady-state target cleavage rate” value was under 0.0001.
Under UAGACUGUCACCUUUCUGAGAGAUUAACA stands 0.5 ± 0.033.
Under UAGUGUGUCACCUACUCUGAGAGAUAAACA stands 0.321 ± 0.05; under UAGUGAGUCACCGUUCUCUGAGAGAUUAACA, 0.453 ± 0.026.
Take AUCUGAGUCACCUUCUCUGAGAGAUAUUGA: the “pre-steady-state target cleavage rate” value amounted to 0.0707 ± 0.016.
As to UAGUCUGUCACCUUGUCUGAGACAUUAACA, the “pre-steady-state target cleavage rate” value was 0.122 ± 0.02.
Under UAGUGACAGACCUUCUGUGAGAGAAUAACA stands 0.0119 ± 0.0044.
As to UAGUGAGUGACCUUCUCUGAGACAUUAACA, the “pre-steady-state target cleavage rate” value was found to be 0.0514 ± 0.0074.
As to UAGUGAGUCACCUUCUCUGAGAGCAUUAACA, the “pre-steady-state target cleavage rate” value was 0.345 ± 0.033.
In the case of “UAGUGACUCACCUUCUCUGAGAGAUUAACU [g2:g23:cont:t1U]”, the “pre-steady-state target cleavage rate” value is 0.305 ± 0.034.
Under UACCUGUCACCUUCUCUGAGAGAUUAACA stands 0.773 ± 0.051; under UAGUGACUCACCUUCUCUGAGAGUUAAACA, 0.126 ± 0.016; under UUCACUGUCACCUUCUGUGAGAGAAUAACA, 0.166 ± 0.028.
Consider UACACUGUCACUUUCUCUGAGAGAUUAACA, for which the “pre-steady-state target cleavage rate” value amounted to 0.725 ± 0.025.
Under UAGACUGACACCUUCUCUGAGAGAUAAACA stands 0.3 ± 0.03; under UAGACUGUCACCUCUCUCUGAGAGAUUAACA, 0.409 ± 0.044; under UAGUCUGUCACCUUCUCUGAGAGAAUUACA, 0.278 ± 0.063.
Under AUCAGUGUCACCUUCUCUGAGUGAUUAACA stands 0.0468 ± 0.011; under UUCACUGUCACCUUCACAGAGAGAUUAACA, 0.0684 ± 0.012.
Under UUCACUGUCACCUUCUCUGAGUCUUUAUGA stands 0.00676 ± 0.0031.
Consider UAGUGACUCACCUUCUCUGAGAAAUUAACA, for which the “pre-steady-state target cleavage rate” value was 0.22 ± 0.031.
The same measure for UAGUGAGUCACCUUCUCUGUGAGAUAAACA: 0.119 ± 0.013; for UUCACUGUCACCUUCUCUGAGAGUUUAAGA: 0.463 ± 0.12.
For the sequence AUCACUGUCACCUUCUCUGAGAGUAUUAACA, the “pre-steady-state target cleavage rate” value was determined as 0.557 ± 0.044.
Under “UAGUGACUCACCUUCUCUGAGAGAUUAACG [g2:g23:cont:t1G]” stands 0.403 ± 0.033.
Under UAGUCUGUCACCUUCAGUGAGAGAUUAACA stands 0.045 ± 0.0062; under UAGUGAGUCACCUUCUCUGACAGAUUAAGA, 0.0174 ± 0.005.
The same measure for UUCUCUGUCACCUUCUCUGAGAGAAUAACA: 0.311 ± 0.046; for UAGUCUGCCACCUUCUCUGAGAGAUUAACA: 0.631 ± 0.028.
As to UAGUGACAGUCCUUCACUGAGUGAUUAACA, the “pre-steady-state target cleavage rate” value turned out to be 0.00526 ± 0.0028.
UACACUGUCACCUUCGCUGAGAGAUUAACA: the “pre-steady-state target cleavage rate” value was 0.44 ± 0.042.
Under UAGUGACAGACCUUCACUGAGAGAUUAACA stands 0.0809 ± 0.012; under UAGUGACAGACCUUCUCUGAGAGAUUAAGA, 0.0708 ± 0.014.
Under UAGACACUCACCUUCUCUGAGAGAUUUUGA stands 0.0632 ± 0.014; under UUCACUGUCACCUUCUCUGAGAGUUAUUGA, 0.378 ± 0.089; under UAGACUGUCACCAAGUCUGAGAGAUUAAGA, 0.00633 ± 0.0032.
Consider UAGUGUGUCACCUUCUGUCAGAGAUUAACA, for which the “pre-steady-state target cleavage rate” value was found to be 0.0146 ± 0.0045.
Consider UUCACUGUCACCUUCUGAGAGAGAUUAACA, for which the “pre-steady-state target cleavage rate” value worked out at 0.0751 ± 0.014.
Under UAGUGAGUCACCUAUCUCUGAGAGAUUAACA stands 0.365 ± 0.032; under UAGUGAGUCAGCUUCUCUGAGAGAUUAUGA, 0.0271 ± 0.0081.
Regarding AUCACUGUCACCUUCUCACAGAGAUUAUGA, the “pre-steady-state target cleavage rate” value came out at 0.00581 ± 0.004.
The same measure for UUCAGUGUCUCCUUCUCUGAGAGAUUAACA: 0.501 ± 0.033; for UAGUGACAGUCCUACUCUGAGAGAUUAACA: 0.00907 ± 0.0022.
For the sequence UACAGUGUCACCUUCUGUGAGAGAUUAACA, the “pre-steady-state target cleavage rate” value amounted to 0.662 ± 0.028.
Turning to AUCACUGUCACCUUCUCUGAGAGAUUAAGCA, the “pre-steady-state target cleavage rate” value is 0.279 ± 0.032.
The same measure for UAGACUGGUCACCUUCUCUGAGAGAUUAACA: 0.716 ± 0.047.
